We go through 50 compounds from article PMC12040169 (PLOS Biology, 2025).

This is one part of the list.

In the experiment the test system is T1, C. trachomatis L2/434/Bu expressing GFP (CTL2-GFP).
T1 construct: L2/434/Bu GFP intracellular growth in HeLa cells
Set-up: species or system HeLa; C. trachomatis total inclusion area by high-content imaging, normalised to DMSO. The following applies: total inclusion area; 28.5 h, 10 µM; inhibitor. A digest of the protocol: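 Post-fluorescence-read fixation, DNA staining with Hoechst and high-content imaging; GFP inclusion area and number per well, and nuclei counts, used as proxies for bacterial growth and host viability.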
Take `Cc1cc(NC(=O)CN2CC(C(=O)N3CCN(c4ccccc4)CC3)C2)no1` [CBK285665]: the “% of control remaining” value was 87.3243.

As to `CC(Oc1ccccc1)C(=O)Nc1ccc(C(=O)O)cc1` (centres unmarked) [CBK287154], the “% of control remaining” value was determined as 101.675.

With `Fc1ccc2c(ccn2CCCN2CCN(c3ccncc3)CC2)c1` [CBK043645G], the “% of control remaining” value is 112.234.

Turning to `N#Cc1ccc(-c2cc(N3CCN(C(=O)c4ccco4)CC3)ncn2)cc1` [CBK037813], the “% of control remaining” value was 62.8978.

As for `O=C(Nc1ccccc1)N[C@H]1CO[C@H]2[C@@H]1OC[C@H]2OC(=O)Nc1ccccc1` [CBK289465], the “% of control remaining” value turned out to be 105.727.

Take `Cc1ccc(CN2C[C@H]3C(=O)Nc4ccccc4C(=O)N[C@@]3(C)C2)o1` [CBK284706]: the “% of control remaining” value was determined as 57.7454.

As to `COc1ccc(CCCC(=O)Nc2cc3ccccc3c(N3CCNCC3)n2)cc1OC` [CBK028417T], the “% of control remaining” value is listed as 100.362.

In the case of `Cc1ccc(C2c3c(oc4ccccc4c3=O)C(=O)N2CCCCCC(=O)O)cc1` (centres unmarked) [CBK287158], the “% of control remaining” value is reported as 102.031.

As to `Cc1cnn(CC(=O)N2CCCCC2CN2CCCCCC2)c1` (centres unmarked) [CBK282103], the “% of control remaining” value is recorded as 128.043.

In the case of `COc1ncc(-c2nc(NC(=O)Cc3cc(F)c(F)c(F)c3)cnc2-c2cccc(C)c2)c(OC)n1` [CBK036717], the “% of control remaining” value is 83.6947.

In the case of `O=C(Nc1nccc(N2CCNCC2)n1)C1CCCC1` [CBK004302T], the “% of control remaining” value is 68.9978.

With `Cc1[nH]c2ccccc2c1C(=O)N1CCC(CC(=O)N2CCN(c3ccccc3)CC2)CC1` [CBK286033], the “% of control remaining” value was found to be 110.076.

`N#Cc1cccc(-n2cc(-c3ccc(Br)cc3F)nn2)c1` [CBK113143]: the “% of control remaining” value is listed as 90.4718.

In the case of `O=C(O)CCc1ccc(-c2ccc(F)cc2)n1NC(=O)c1ccco1` [CBK268853], the “% of control remaining” value worked out at 81.3266.

As to `O=C(NCCc1ccccc1)N(Cc1ccc(-c2ccccc2)cc1)CC1CCNCC1` [CBK049792], the “% of control remaining” value amounted to 95.85.

Consider `CN1CCCc2c1oc1c(OCc3cccnc3)cccc1c2=O` [CBK007904], for which the “% of control remaining” value amounted to 95.043.

With `CN(C)CCCC(=O)Nc1ccc2c(ccn2Cc2ccccc2)c1` [CBK159740], the “% of control remaining” value stood at 73.9431.

As to `CN1CCc2nc(SCc3cccnc3)c(C#N)cc2C1` [CBK267463], the “% of control remaining” value is given as 101.225.

Turning to `Cc1ccc(C(C)C)c(OCC(=O)N2CCN(Cc3nc4cc([N+](=O)[O-])ccc4n3C)CC2)c1` [CBK268519], the “% of control remaining” value is recorded as 80.1339.

As to `CCCCCC(=O)N1CCc2cc(N3CC(CNC(C)=O)OC3=O)ccc21` (centres unmarked) [CBK007646], the “% of control remaining” value came out at 89.1054.

As to `COc1ccc(-c2nnc(SCC(=O)Nc3ccccc3[N+](=O)[O-])n2C)cc1` [CBK265609], the “% of control remaining” value amounted to 107.478.

On to `COCCNC(=O)c1cc(-c2ccc(C)s2)nc2c1cnn2C(C)C` [CBK305051], for which the “% of control remaining” value turned out to be 93.1752.

Take `Cc1[nH]c(=O)[nH]c(=S)c1C(=O)Nc1ccc2c(c1)OCO2` [CBK115519]: the “% of control remaining” value turned out to be 98.6788.

For the compound `O=C(O)c1cccnc1SC1CC(=O)N(c2cccc(Cl)c2Cl)C1=O` (centres unmarked) [CBK269306], the “% of control remaining” value was determined as 86.7964.

For the compound `CC1=C[C@@H](CNS(=O)(=O)c2cccs2)[C@H](C(C)C)C[C@H]1CC(=O)O` [CBK289210], the “% of control remaining” value worked out at 93.6588.

Regarding `COc1cc(C(C)c2cc3c(cc2O)OCO3)cc(OC)c1OC` (centres unmarked) [CBK200103], the “% of control remaining” value is given as 15.4845.

In the case of `COc1ccc(-c2ocnc2C(=O)NCCc2ccccc2F)cc1` [CBK283941], the “% of control remaining” value was 63.9646.

Regarding `CC1(C)CC(=O)c2sc(NC(=O)C3CC3)nc2C1` [CBK287329], the “% of control remaining” value was 106.76.

For the compound `Nc1ncc(-c2ccc(C(=O)N3CCOCC3)cc2)nc1-c1ccc(Cl)s1` [CBK138510], the “% of control remaining” value turned out to be 94.2153.

Regarding `COC(=O)c1c(NC(=O)CC2NCCNC2=O)sc(C)c1C` (centres unmarked) [CBK269447], the “% of control remaining” value came to 109.595.

In the case of `CCN(CC)C(=O)Cn1c(=O)n(CC)c2ncccc21` [CBK282347], the “% of control remaining” value amounted to 93.9771.

Turning to `CCOc1ccc(-c2nc(CSc3n[nH]c(=O)n3Cc3ccccc3)cs2)cc1` [CBK296737], the “% of control remaining” value is 106.926.

For `Cc1ccc(CN[C@@H]2COC[C@H]2Cc2cc(C)no2)cc1` [CBK283030], the “% of control remaining” value came out at 77.7584.

For `Cn1c(N2CCCC(C(N)=O)C2)nc2ccccc21` (centres unmarked) [CBK282372], the “% of control remaining” value was 115.159.

For the compound `Cc1ccc(-c2cnc(NC(=O)Cn3cccn3)n2C)cc1C` [CBK281727], the “% of control remaining” value turned out to be 71.8579.

Regarding `O=C(CN(c1cccc(Cl)c1)S(=O)(=O)c1ccccc1)Nc1cccc2cccnc12` [CBK263270], the “% of control remaining” value is given as 73.9418.

`C=CCN1CCC2(CC1)CN(C(C)=O)Cc1cc(C)ccc1O2` [CBK282693]: the “% of control remaining” value was 108.536.

Regarding `COC(=O)c1ccc(Oc2nc(OC)cc(OC)n2)cc1` [CBK092221], the “% of control remaining” value came out at 90.8833.

For the compound `COc1ccc2[nH]c3c(c2c1)CCNC31CCN(CCSc2ccccc2)C1` (centres unmarked) [CBK084541T], the “% of control remaining” value is given as 48.5095.

Turning to `CC(=O)NCc1cccc(-c2cc(C(=O)NCC3CN(Cc4ccccc4)CCO3)cnc2-c2ccc(Cl)cc2)c1` (centres unmarked) [CBK164416T], the “% of control remaining” value turned out to be 103.806.

For `CN(CC(=O)NCc1ccc(OCC(N)=O)cc1)C1CCCCC1` [CBK306331], the “% of control remaining” value came out at 70.0249.

Consider `O=C(NC(c1cccc([N+](=O)[O-])c1)c1cc(Cl)c2cccnc2c1O)c1cccnc1` (centres unmarked) [CBK263987], for which the “% of control remaining” value is recorded as 101.145.

With `Cc1c(O)ccc2c(COC(=O)C3(c4ccccc4)CCCC3)cc(=O)oc12` [CBK295622], the “% of control remaining” value came out at 86.5165.

For `COc1cc(-c2cncc(N3CCC(C(=O)O)CC3)n2)cc(OC)c1OC` [CBK037973], the “% of control remaining” value worked out at 60.1696.

Regarding `Cc1cc(C)nc(SCC(=O)Nc2cccc(C(=O)O)c2)n1` [CBK263214], the “% of control remaining” value came out at 105.424.

As for `Cc1ccc(-c2c[nH]c([C@@H]3COCCN3Cc3c[nH]cn3)n2)cc1` [CBK289315], the “% of control remaining” value was 126.47.

For `O=C(Nc1ccc2c(c1)nc1n2CCN(Cc2ccccc2)C1)NC1CCCCC1` [CBK267033], the “% of control remaining” value is reported as 99.412.

Consider `CS(=O)(=O)N1CCc2cc(-c3csc(NCC(F)(F)F)n3)ccc21` [CBK305650], for which the “% of control remaining” value amounted to 67.406.

Regarding `CC(C)(C)c1ccc(O)c(NC(=S)NC(=O)c2ccccc2I)c1` [CBK264399], the “% of control remaining” value is 90.6127.

`O=C(Nc1cc(Oc2cccnc2)cc([N+](=O)[O-])c1)c1nn2c(C(F)(F)F)cc(-c3cccs3)nc2c1Br` [CBK262535]: the “% of control remaining” value is on record as 103.428.
